Experimental data: publication PMC4336329 (PLoS ONE, 2015)
About 2,200 (0.71%) of roughly 310,000 compounds showed an effect of 50% or more. Effects have a minus sign here. This is one part of the list.

molecular target: human ether-à-go-go-related gene (hERG) potassium channel (human, UniProt Q12809); test: primary screen, population patch clamp on CHO cells stably expressing hERG
Sequence (Q12809 whole entry, looked up): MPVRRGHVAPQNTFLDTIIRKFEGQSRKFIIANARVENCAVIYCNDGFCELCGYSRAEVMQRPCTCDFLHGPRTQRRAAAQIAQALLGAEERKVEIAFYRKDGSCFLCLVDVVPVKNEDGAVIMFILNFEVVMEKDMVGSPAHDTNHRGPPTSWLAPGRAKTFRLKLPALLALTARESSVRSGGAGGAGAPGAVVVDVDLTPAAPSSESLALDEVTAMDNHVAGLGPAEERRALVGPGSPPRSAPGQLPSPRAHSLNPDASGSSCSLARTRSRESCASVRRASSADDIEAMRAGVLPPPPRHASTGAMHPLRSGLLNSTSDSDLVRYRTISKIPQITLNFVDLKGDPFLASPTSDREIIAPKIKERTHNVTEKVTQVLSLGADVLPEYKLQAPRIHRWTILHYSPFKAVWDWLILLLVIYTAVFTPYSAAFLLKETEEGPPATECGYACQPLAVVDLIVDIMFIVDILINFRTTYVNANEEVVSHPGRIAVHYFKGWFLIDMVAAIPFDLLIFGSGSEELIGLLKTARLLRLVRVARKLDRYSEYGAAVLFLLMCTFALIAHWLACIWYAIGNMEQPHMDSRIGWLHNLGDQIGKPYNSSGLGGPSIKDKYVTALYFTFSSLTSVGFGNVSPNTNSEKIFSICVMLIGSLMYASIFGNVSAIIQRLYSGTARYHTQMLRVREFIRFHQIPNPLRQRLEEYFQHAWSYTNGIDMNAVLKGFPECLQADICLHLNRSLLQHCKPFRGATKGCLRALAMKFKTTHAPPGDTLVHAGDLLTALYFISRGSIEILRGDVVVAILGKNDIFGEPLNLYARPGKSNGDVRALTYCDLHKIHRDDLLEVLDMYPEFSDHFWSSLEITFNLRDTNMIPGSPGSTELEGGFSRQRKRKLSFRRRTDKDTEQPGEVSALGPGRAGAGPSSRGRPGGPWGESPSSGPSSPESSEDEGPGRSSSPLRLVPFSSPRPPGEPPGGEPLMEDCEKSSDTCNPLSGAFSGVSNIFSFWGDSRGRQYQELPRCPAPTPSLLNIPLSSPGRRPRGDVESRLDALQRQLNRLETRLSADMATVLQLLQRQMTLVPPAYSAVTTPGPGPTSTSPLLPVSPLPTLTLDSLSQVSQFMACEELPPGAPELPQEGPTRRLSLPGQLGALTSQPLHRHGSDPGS

| SMILES | hERG current change (%, negative = inhibition) at 1uM [%] |
| --- | --- |
| O=C(/C=C/c1cccc([N+](=O)[O-])c1)OC1CCCCC1=O (centres unmarked) | 9.96 |
| Nc1c2c(nc3sc4c(c13)CCCC4)CCCC2 | -13.2 |
| Cc1cccc(OCC(=O)Nc2ccc(S(=O)(=O)Nc3onc(C)c3C)cc2)c1C | 10.3 |
| FC(F)(F)c1cccc(-c2ccc(/C=N/Nc3nncc(-c4ccccc4)n3)o2)c1 | 6.55 |
| CCCc1nc(SCC(=O)N2CCC(C)CC2)c2c(=O)n(C)c(=O)n(C)c2n1 | -1.59 |
| CCc1ccccc1NC(=O)COc1cccc2ccc(C)nc12 | -18.1 |
| Cl.O=C(CN1CCN(c2ncccn2)CC1)Nc1ccccc1-n1cccc1 | 5.61 |
| O=C(CCl)NN1C(=O)NC2(CCCCC2)C1=O | 4.73 |
| O=C(c1ccc([N+](=O)[O-])cc1)N1CCOC12CCN(c1ncc(C(F)(F)F)cc1Cl)CC2 | 13.6 |
| CCNc1nc(Cl)nc(-c2cn(-c3ccccc3)c3ccccc23)n1 | 7.92 |
| CC1CCCN(CCCN2C(=O)C3C(C(=O)Nc4ccc(Cl)cc4)C4C=CC3(O4)C2C(=O)NC2CCCCC2)C1 (centres unmarked) | 7.24 |
| CC1(C)Cc2c(c(-c3ccccc3)[nH]c(=O)c2C#N)CS1 | 14.5 |
| Cn1ccnc1C1CCCCN1Cc1nc(Cc2cccc(C(F)(F)F)c2)no1 (centres unmarked) | 4.58 |
| Oc1[nH]c(N=C2N=c3ccccc3=N2)c2ccccc12 | 10.5 |
| Nc1ccn([C@@H]2O[C@H](CO)[C@@H](O)[C@@H]2O)c(=O)n1 | 1.86 |
| Cc1ccc(-c2nn3nnnc3c3ccccc23)cc1C | -5.22 |
| Nc1cnn(Cc2ccccc2F)c1 | 9.66 |
| COc1ccc(-n2c(Cn3c(=O)sc4ccccc43)nnc2SCC(=O)N2CCCCC2)cc1 | -0.0423 |
| Cc1ccc(C)c(S(=O)(=O)N2C(=S)NC(=O)C2CC(C)C)c1 (centres unmarked) | 5.95 |
| Cc1ccc(C)c2c1N(Cc1ccccc1)C(=O)C21OCCO1 | 11.9 |
| CCOC(=O)C1=C(C)NC(C)=C(C(=O)OCC)C1C(=O)OC1CCOC1=O (centres unmarked) | 14 |
| COc1ccc(S(=O)(=O)N2CCN(c3ncnc4c(-c5ccccc5)nsc34)CC2)cc1 | -10.3 |

| SMILES | hERG current change (%, negative = inhibition) at 1uM [%] |
| --- | --- |
| Cc1cccc(N(CC(=O)N=Nc2c(O)[nH]c3ccccc23)S(C)(=O)=O)c1C | -1.81 |
| Cc1ccc(S(=O)(=O)N2CCN(C(=O)COC(=O)c3ccccc3Cl)CC2)c(C)c1 | 3.09 |
| Cc1cc2[nH]c(=O)cc(-c3ccccc3)n2n1 | 13.4 |
| O=C(O)CN1C(=O)CNC1=O | 6.71 |
| O=C1c2ccccc2S(=O)(=O)c2cc(C(=O)N3CCN(c4ccc(Cl)cn4)CC3)ccc21 | -8.91 |
| Cc1ccc(S(=O)(=O)N/N=C\c2ccc3c(c2)OCO3)cc1 | 6.04 |
| COC(=O)C1C(O)=CC(=O)CC1C (centres unmarked) | 11.8 |
| Cc1cn(C2OC(COC(=O)c3ccccc3)C(O)C2O)c(=O)[nH]c1=O (centres unmarked) | 1.18 |
| COCCCN1C(=O)c2ccc(C(=O)Nc3ccccc3Cl)cc2C1=O | 11.4 |
| Cc1nn(Cc2ccccc2Cl)c(C)c1NC(=O)Cn1nc([N+](=O)[O-])c(Cl)c1C | 14 |
| CC1CCN(S(=O)(=O)N2CCC(C(=O)NCc3cccnc3)CC2)CC1 | -14.9 |
| Nc1ccccc1Oc1ccc2ccccc2c1 | 10.8 |
| Cc1cc(C)n2nc(C(=O)OCC(=O)NNC(=O)c3ccccc3)nc2n1 | 3.95 |
| COc1ccc(S(=O)(=O)c2cnc3ccc(OC)cc3c2N2CCC3(CC2)OCCO3)cc1 | 6.72 |
| C=CCn1c(CSCc2ccc(Cl)cc2Cl)nnc1SCC(=O)Nc1ccc(C(=O)O)cc1 | 13.3 |
| CCOC(=O)c1cc(CC)sc1NC(=O)c1cccc(N2C(=O)CCC2=O)c1 | -6.32 |
| Nc1cc(C(F)(F)F)cc2c1SCC(=O)N2 | 22.2 |
| O=C(OCC(=O)N(C1CCCCC1)C1CCCCC1)c1ccc(O)cc1 | 11.7 |
| COc1ccc(/C=N/NC(=O)c2cc[n+]([O-])cc2)cc1O | 9.9 |
| Cc1ccc(-c2nnn(CC(=O)NCC3COCCO3)n2)o1 (centres unmarked) | 14.2 |
| CC1CCCC(NC(=O)COC(=O)Cc2ccccc2)C1C (centres unmarked) | -6.13 |
| CCN1CCN(c2nc(Nc3cccc(C)c3)nc(N)c2[N+](=O)[O-])CC1 | -36.9 |
